# Measurements from PubChem BioAssay (NCI).
# Where “and” joins values, the source holds several entries; their conditions need not be identical. Equal values may be shown once.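 Results reflect a 48-hour exposure of cells in 96-well plates to compound at five concentrations. GI50: concentration for 50% inhibition of growth. TGI is the concentration that stops growth completely.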
# Test system: NCI-H322M lung
# Experiment: NCI tumour cell line growth inhibition, 48 h
SMILES,TGI,GI50
O=C1CCC(=O)N1n1c(Cc2ccccc2)n[nH]c1=O,> 100 µM,–
CCc1ccc(CCN2CCCCC2)nc1,> 100 µM,–
Cc1nc(C(N)=S)sc1/C(CC(=O)C(=O)Nc1cccc2ccc(O)cc12)=N\NC(=O)c1ccncc1,> 100 µM,–
CCCCCN(CCCCC)CC(O)c1cc(C)c2ccc3cc(C(C)C)ccc3c2c1 (centres undefined),3.23 µM,1.76 µM
Cc1cc(O)c2c(=O)c3ccccc3[nH]c2c1,> 100 µM,–
CC/C=C\CCC/C=C1/C(=O)C=C[C@@H]1C/C=C\CCCC(=O)OC,15.1 µM,3.6 µM
O=S1(=O)NC(=NCc2c[nH]c3ccccc23)N(c2ccccc2)c2ccncc21,> 100 µM,–
COc1ccc2c(C3=C(c4cn(C)c5ccccc45)C(=O)NC3=O)cn(C)c2c1,> 25 µM,0.328 µM
N#CC1=C(N)N(c2ccccc2)C(c2ccco2)C1(C#N)C#N (centres undefined),41.8 µM,–
Cc1ccsc1/C=N/Nc1ncccn1,> 100 µM,–
CC(C)c1ccc(/C=C2/C=C(c3ccc4ccccc4c3)OC2=O)cc1,> 100 µM,–
COC(=O)CC1CCN(C#N)CC1CC[N+](=O)[O-] (centres undefined),> 100 µM,–
COc1c(C)c(C/C=C(\C)CCCCO[Si](c2ccccc2)(c2ccccc2)C(C)(C)C)c(OC)c(OC)c1OC,> 100 µM,–
COc1ccc(C(=O)Cn2c(C(=O)c3ccccc3)nc(-c3ccc(OC)cc3)c2-c2ccc(OC)cc2)cc1,> 100 µM,> 100 µM
O=[N+]([O-])/C(C(Cl)=C(Cl)Cl)=C(\SCc1ccccc1)N1CCCCC1,> 100 µM,–
COc1ccc(C2c3cc4c(cc3OC(NNS(=O)(=O)c3ccc(C)cc3)C2C)OCO4)cc1 (centres undefined),> 100 µM,–
COc1cc(Cc2cnc(/N=C3\C(=O)N(CN4CCN(c5c(F)cc6c(=O)c(C(=O)O)cn(C7CC7)c6c5OC)CC4C)c4ccc(F)cc43)nc2N)cc(OC)c1OC (centres undefined),26.7 µM,11.7 µM
N#CCCN(CCC#N)c1ccc(/C=C2\N=C(c3cc([N+](=O)[O-])ccc3Cl)OC2=O)cc1,> 100 µM,–
COc1ccc(/C=C2\CCC(C)C3=C2NC(=S)NC3c2ccc(OC)c(OC)c2)cc1OC (centres undefined),> 31.6 µM,–
COC(=O)C1CCC(=O)N1C(c1ccccc1)c1ccc(OC)c(OC)c1 (centres undefined),> 100 µM,–
COC1CCC(N2C(=O)CNc3ncc(-c4ccc(C(C)(C)O)nc4)nc32)CC1 (centres undefined),> 37.6 µM,0.536 µM and 0.289 µM
CC1(c2ccc(F)cc2)C(C#N)C(=O)NC(=O)C1C#N (centres undefined),> 100 µM,–

SMILES,TGI,GI50
FC(F)(F)c1cc(Cl)cnc1N/N=C(/c1ccccc1)c1ccccn1,54 µM,–
C=C(C1=CC(=O)C(C)(C)O1)[C@@H]1CC=C([C@@H]2CC[C@H]3[C@@]2(C)CC[C@H]2C(C)(C)C(=O)[C@H](O)C[C@]32C)[C@H](O)O1,24.1 µM,–
CC(=O)NC1=C(NCCC(C)C)C(=O)c2ccccc2C1=O,> 50 µM,–
N=c1n(C(=O)N2CCCC2)c2cc(Cl)ccc2n1C1=NCCN1,> 100 µM,–
CCCCOC(=O)C1OC(O[C@H]2CCC3(C)C(CCC4(C)C3CC=C3C5CC(C)(C)CCC5(C(=O)O)CC[C@]34C)C2(C)C)C(OC2OC(CO)C(O)C(O)C2O)C(OC2OC(CO)C(O)C(O)C2O)C1O (some centres undefined),49.2 µM,19 µM
Cn1c2ccccc2c2c(Nc3ccccc3)c3ccccc3nc21,45.6 µM,15.3 µM
CCOc1ccc(NC(=O)C(=O)CC(=O)c2c[n+](=O)c3cc(C)c(C)cc3n2[O-])cc1,> 100 µM,–
COC1=CC(c2ccc[nH]2)=N/C1=C\c1[nH]c(C)c(C(=O)OC(C)C)c1C,6.86 µM,0.549 µM
CC(=O)NNc1nc(C)c(C(=O)NNC(=O)C(=O)Nc2ccc(Cl)cc2)s1,> 100 µM,–
CC(C)=CC(=O)C1c2cccc(O)c2C(=O)c2c(O)cc(C)cc21 (centres undefined),6.94 µM,–
Cc1cc(=O)[nH]c(NN2C(Cl)C(=O)C2c2ccccc2O)n1 (centres undefined),> 100 µM,–
Clc1ccc2c(NCCCCNc3nc(N4CCCCC4)nc4ccccc34)ccnc2c1,7.42 µM,1.96 µM
CCC1(O)CC2CC(=O)OC2C1O (centres undefined),> 100 µM,–
CO[C@H](C(=O)[C@@H](O)[C@@H](C)O)[C@@H]1Cc2cc3cc(O[C@H]4C[C@@H](O[C@H]5C[C@@H](O)[C@H](O)C(C)O5)[C@H](O)C(C)O4)c(C)c(O)c3c(O)c2C(=O)[C@H]1O[C@H]1C[C@@H](O[C@H]2C[C@@H](O[C@H]3C[C@](C)(O)C(=O)C(C)O3)[C@@H](O)C(C)O2)[C@H](O)C(C)O1 (some centres undefined),> 15.2 µM,0.0919 µM
O=S1(=O)c2ccccc2NC(c2ccc3ccccc3c2)CC1c1ccccc1F (centres undefined),> 100 µM,–
C[C@@]12C[C@@H](c3ccccc3O1)N1CCCCSC1=N2,> 100 µM,–
CCC(CO)Nc1nc2ccc(Cl)cc2c2ccccc12 (centres undefined),18.3 µM,3.88 µM
CC(N)Cc1ccc(C(=O)Cl)cc1 (centres undefined),> 100 µM,–
NC(Cc1c[nH]c2c(O)cccc12)C(=O)O (centres undefined),> 100 µM,> 100 µM
CC[C@@]1(O)C(=O)OCc2c1cc1n(c2=O)Cc2c-1nc1ccccc1c2/C=N\NC(=O)CN,> 78.3 µM,–
CC1(C)CCc2c(c3c(c4c(=O)c(O)c(-c5ccc(O)cc5)oc24)OC(C)(C)CC3)O1,> 100 µM,92.2 µM
O=C(Cc1cccs1)N[C@@H]1C(=O)N2C(C(=O)OC(c3ccccc3)c3ccccc3)=C(CO)CS[C@H]12,> 100 µM,–

SMILES,TGI,GI50
N#CN=C(N(Cc1ccccc1)Cc1ccccc1)N(Cc1ccccc1)Cc1ccccc1,> 100 µM,–
CCNC(=S)N/N=C/c1cc([N+](=O)[O-])ccc1O,> 100 µM,–
O=C(COc1ccc(Br)cc1Br)N1N=C(c2ccc([N+](=O)[O-])o2)CC1(O)c1ccccc1 (centres undefined),43.3 µM,–
O=C1OCC(O)=C1C(c1ccc(Cl)cc1)c1cc2c(cc1O)OCO2 (centres undefined),> 100 µM,–
O=C(Nc1ccc(Cl)c(Cl)c1)Nc1ccc(Cl)c(Cl)c1,14.9 µM and 16.6 µM,2.96 µM and 3.46 µM
CC(=O)Nc1ccc(-c2nnc(SCC(=O)Nc3ccc([N+](=O)[O-])cc3)o2)cc1,54.9 µM,–
CC1(C)N=C(/C(Cl)=[N+](/[O-])C(=O)c2ccc(F)cc2)C(C)(C)N1O,45.2 µM,–
C[n+]1c2ccccc2c(/C=N\NS(=O)(=O)c2ccc(O)c(C(=O)O)c2)c2ccccc21,> 100 µM,–
CCCNC1=C2CC(C)CC(OC)[C@@H](O)[C@H](C)/C=C(\C)C(OC(N)=O)C(OC)/C=C\C=C(/C)C(=O)NC(=CC1=O)C2=O (some centres undefined),19 µM,–
COc1ccc(C(OCC2OC(n3cc(C)c(=O)[nH]c3=O)CC2n2cc(Cn3cc(I)c(=O)[nH]c3=O)nn2)(c2ccccc2)c2ccccc2)cc1 (centres undefined),> 100 µM,–
CCOC(=O)C(NC(C)=O)(Nc1ccc(F)cc1)C(F)(F)F (centres undefined),> 100 µM,–
O=C(Nc1ccccc1)NS(=O)(=O)c1ccc(-n2nc3c(c2-c2cccs2)Cc2ccccc2-3)cc1,47 µM,4.5 µM
COc1cc(/C=C/C(=N\NS(=O)(=O)c2ccc(C)cc2)c2sc(NNC(C)=O)nc2C)ccc1O,> 100 µM,–
COc1cc(/C=C2\S/C(=N/Nc3nc(-c4ccc(Br)cc4)cs3)NC2=O)cc(OC)c1OC,82.8 µM,–
CCOC(=O)CN1C(=O)c2cccc3cc([N+](=O)[O-])cc(c23)C1=O,25.1 µM,–
O=C1C(Cl)=C(Nc2cccc(Cl)c2)C(=O)N1Cc1ccc(Cl)cc1Cl,40.4 µM,8.55 µM
CNC(=O)OCC1=C(COC(=O)NC)C(C)N(c2ccc(OC)cc2)C1 (centres undefined),> 100 µM,–
O=C(/C=C/C12c3ccccc3C(c3ccccc31)C1C(=O)NC(=O)C12)c1ccncc1 (centres undefined),10.7 µM,3.09 µM
CN/N=C(/Cc1occc(=O)c1O)C(=O)Nc1ccccc1C,> 100 µM,–
Cc1ccc(SCC(CSCCO)OCn2cnc3c2NC(N)=NC32OCCO2)cc1 (centres undefined),> 100 µM,–
NC(=O)c1cccc2cn(-c3ccc([C@@H]4CCCNC4)cc3)nc12,62.5 µM,22.1 µM
